In the supplement of paper PMC11417369:
This is one part of the list.

These sequences were tested on PfAP2-HC AP2 domain (GST-tagged) (assay: gcPBM binding intensity (ln(normalized median fluorescence intensity)); higher = stronger DNA binding).
Summary of the method: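 The binding buffer was 1× PBS containing 1% milk, 0.2 mg/ml BSA, 0.5% salmon testes DNA and 0.03% Triton X-100. In it, GST-tagged P. falciparum DNA-binding domains expressed in E. coli were applied for 1 h to an Agilent 4 × 180k array of primer-extended double-stranded 36-bp intergenic genomic probes plus negative controls. Binding intensity, read with Alexa488 anti-GST antibody and a 488 nm scan, is the highest Masliner-normalised natural-log median intensity across replicate spots of either probe orientation.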
In the case of AGGGAAAAAAAAAAAGTGCATTTGTATTAAATGAAT, the “gcPBM binding intensity (ln)” value is reported as 9.49. In the case of “GTAAACAAAATATTTTGTACATATTTTATATTATTT [XGTACX_site7837]”, the “gcPBM binding intensity (ln)” value is reported as 9.71. “GGACATTTTTATAAGGTGCACGGTTTTGATATTACT [GTGCAC_site9892]” was tested, and the “gcPBM binding intensity (ln)” value was 9.67. “ATAATGATATATAGTACACACAAAAATGGAAGTAAA [CACACA_site7541]” was tested, and the “gcPBM binding intensity (ln)” value was 10.1. With “AACCACATACATATAACACACATATACAATATATAT [CACACA_site8607]” the “gcPBM binding intensity (ln)” value was 10.2. In the case of “AATTTGATAATATCATGTACATGAAAGAATTCATGA [XGTACX_site8463]”, the “gcPBM binding intensity (ln)” value is reported as 9.44. “GTTAAAAGAAAAATATGTACATAAAAAAATTAGAAA [XGTACX_site578]” was tested, and the “gcPBM binding intensity (ln)” value was 9.75. With “CTCTTGTTTCCATATAGTACGTAATAATATATACAA [XGTACX_site2428]” the “gcPBM binding intensity (ln)” value was 9.55. With “AAGATGGTAAAGAATTGTACGCGCATATATATATTT [XGTACX_site3904]” the “gcPBM binding intensity (ln)” value was 9.93. In the case of “TTTTCAATTAAAAAAAAATTATATTTTATTATTACA [CACACA_negctrl_site142]”, the “gcPBM binding intensity (ln)” value is reported as 9.32. For “TATATATATATATGATGTACACATTTTATTATTTGT [XGTACX_site1147]”, the “gcPBM binding intensity (ln)” value was 10.1. For “TACATAAATTAAAACACACACACACCCAAAAAAAAA [CACACA_site2261]”, the “gcPBM binding intensity (ln)” value was 10.5. For “AAAAAATAAAAAGATACACACATATGTATAATATAC [CACACA_site1496]”, the “gcPBM binding intensity (ln)” value was 10. With “GTGTATATTATTTTATCACACATGTACATATGTTAA [CACACA_site5473]” the “gcPBM binding intensity (ln)” value was 9.79. In the case of “AATAAAAAAATATGAAATTATGACATATAGCATTTG [TGCATGCA_negctrl_site160]”, the “gcPBM binding intensity (ln)” value is reported as 9.65. In the case of TTTTTTGTTAAGTTGGTGCAAACAATAGTTATTGAC, the “gcPBM binding intensity (ln)” value is reported as 9.5. For “TATATCTACTACACACGTACACAAAATAAGATACCT [XGTACX_site7886]”, the “gcPBM binding intensity (ln)” value was 10.1. With “TGTAGTCTGGAGAAGAGTACATAGTATCTGGTAGCT [XGTACX_site2029]” the “gcPBM binding intensity (ln)” value was 9.58. In the case of “GAATTGTATTGGTACTGTACAATTAAATTAAAAAAA [XGTACX_site1891]”, the “gcPBM binding intensity (ln)” value is reported as 9.65. With “AAAAAAAAAAAACACACACACACACCCATATATAAA [CACACA_site1170]” the “gcPBM binding intensity (ln)” value was 11.1. For “ACATAAAATTATTATACATGCATATTTAATTTTTTC [TGCATGCA_site353]”, the “gcPBM binding intensity (ln)” value was 9.52. With “AAAAATATAAACAAACGTACGAAGTGATGATATATT [XGTACX_site2242]” the “gcPBM binding intensity (ln)” value was 9.96. In the case of “TATTATATTTTTATTTGTACGTAAAATTAAGTTATG [XGTACX_site2405]”, the “gcPBM binding intensity (ln)” value is reported as 9.52. For “AATAATTAACAAAAAAAAAAAAAAAAAAAAAAAAAA [GTGCAC_negctrl_site255]”, the “gcPBM binding intensity (ln)” value was 8.75. “TATAAATAAATATGTACACACATATATACCTTTCAT [CACACA_site7291]” was tested, and the “gcPBM binding intensity (ln)” value was 9.85.
